The source of these data is ChEMBL document CHEMBL4888484, “Replenishing the malaria drug discovery pipeline: Screening and hit evaluation of the MMV Hit Generation Library 1 (HGL1) against asexual blood stage Plasmodium falciparum ,using a nano luciferase reporter read-out” (2022).

The whole screen tested about 150,000 compounds, of which about 540 (0.36%) showed an effect of 50% or more. The list shows a part of the results.

This assay has as its system Plasmodium falciparum. Briefly: Primary screen in NF54 nanoGlo assay, in single point, at 2uM, 72h; a lower Z score goes with more inhibition. Type of assay: functional, Erythrocyte. The settings on record: timepoint 72 hour.
The % Inhibition is the change of the read-out against control, counted positive when it falls. Turning to `O=C(N[C@H]1CCOC[C@@H]1O)c1ccc2ncsc2c1`, the “% Inhibition” value came to 14% and the Z score is listed as -1.9.

`CC[C@@H]1OC2(CCN(c3ncnc4cc(Br)ccc34)CC2)NC1=O`: the “% Inhibition” value came out at 3% and the Z score was -0.47.

With `O=C(CN1CCC[C@H](c2nc3ccccc3s2)C1)Nc1ccc(N2CCOCC2)cc1`, the “% Inhibition” value is -1% and the Z score was determined as 0.13.

In the case of `Cc1cc(F)ccc1OC1(C(=O)O)CCN(C(=O)C2(N)CCC2)CC1`, the “% Inhibition” value is -6% and the Z score was 1.19.

For `Cc1nc2ccc(NC(=O)[C@H](C)NC(=O)OCc3ccccc3)cc2s1`, the “% Inhibition” value is 2% and the Z score is -0.32.

With `CN1CCCN(C(=O)c2ccc(Cl)c(N3CCCC3=O)c2)c2nc3ccccc3nc21`, the “% Inhibition” value is listed as 0% and the Z score was 0.08.

On to `CN(C(=O)c1ccc(F)c(S(=O)(=O)N2CCCC2)c1)c1cc(-c2ccccc2)[nH]n1`, for which the “% Inhibition” value is -1% and the Z score was 0.1.

In the case of `COC(=O)c1ccc2c(c1)N(C(=O)c1ccn(-c3ccc(F)cc3C)n1)CC(=O)N2`, the “% Inhibition” value is -2% and the Z score came to 0.25.

With `Cc1sc(C)c(S(=O)(=O)N2CCCc3ccccc32)c1-c1ccno1`, the “% Inhibition” value is given as -13% and the Z score was found to be 2.3.

In the case of `CCCc1nc(C)c(CNC(=O)c2cnc(C3CC3)nc2O)s1`, the “% Inhibition” value came to 2% and the Z score is recorded as -0.38.

As for `CC(=O)Nc1cc(C)nn1-c1ccc(NC(=O)Cc2coc3cc(C)c(C(C)C)cc23)cc1`, the “% Inhibition” value is 7% and the Z score is -0.91.

Regarding `Oc1cc(CNCc2nnc3n2CCCC3)nc2c(F)cccc12`, the “% Inhibition” value is on record as -8% and the Z score amounted to 1.06.

Take `O=C([C@@H]1COc2ccccc2O1)N1CCN(C(c2ccccc2)c2ccccc2)CC1`: the “% Inhibition” value was -4% and the Z score is 0.89.

With `Cc1cc2ccccc2nc1NCCCCN1CCN(CCO)CC1`, the “% Inhibition” value was determined as 3% and the Z score was -0.31.

As to `O=C(CN1CCCN(c2cnc3ccccc3n2)CC1)N1CCCC1`, the “% Inhibition” value is given as -10% and the Z score was determined as 1.53.

Consider `c1ccc2c(c1)CC[C@@H]2n1ccnc1-c1ccncc1`, for which the “% Inhibition” value turned out to be 11% and the Z score is -1.44.

For `COc1cc(Br)ccc1CN[C@H](C(N)=O)C(C)(C)C`, the “% Inhibition” value was -14% and the Z score amounted to 1.5.

Consider `C#CC[C@H](OC(=O)c1ccc(NC(C)=O)cc1)C1CC1`, for which the “% Inhibition” value is given as -3% and the Z score came out at 0.41.

`O=C1NC(c2ccc(NC(=O)c3cccc4ccccc34)cc2)(c2ccc(NC(=O)c3cccc4ccccc34)cc2)c2ccccc21`: the “% Inhibition” value worked out at 23% and the Z score was -3.32.

On to `CCOc1ccc(C(=O)N/C(=N/c2cc(C)cc(C)c2)N2CCN(Cc3ccccc3F)CC2)cc1`, for which the “% Inhibition” value is reported as -3% and the Z score is listed as 0.49.

For the compound `Cc1nnc(NC(=O)CCc2cccnc2)s1`, the “% Inhibition” value was -3% and the Z score came out at 0.45.

As for `Cc1ccnn1CC(=O)N1CC(=O)N(c2cccc(Cl)c2)C[C@@H]1C`, the “% Inhibition” value was -1% and the Z score is 0.08.

Take `CCc1nnc(-c2cccc(-n3cnnc3)c2)[nH]1`: the “% Inhibition” value is on record as -22% and the Z score was found to be 2.84.

For the compound `NC(=O)C1(NC(=O)Nc2ccccc2-c2nnco2)CCCC1`, the “% Inhibition” value is 4% and the Z score is recorded as -0.7.

Consider `COc1ccc(S(=O)(=O)Nc2nnc(CC3CCCC3)o2)cn1`, for which the “% Inhibition” value is recorded as -4% and the Z score turned out to be 0.69.

On to `COc1ccc(Oc2c(CN(CC3CC3)C(=O)C3CCC3)c(-c3ccccc3)nn2C)cc1`, for which the “% Inhibition” value is reported as 6% and the Z score was -0.76.

Take `CC(C)CN1C(=O)C2(CCCC2)N[C@@H]1c1cscn1`: the “% Inhibition” value was -13% and the Z score amounted to 1.35.

Turning to `CC(C)(C)n1nnc(CNc2cc(Cl)cc(F)c2C(N)=O)n1`, the “% Inhibition” value is given as -4% and the Z score came out at 0.67.

For the compound `O=C(Cn1cccn1)NC[C@H]1CCCN(c2ccncc2)C1`, the “% Inhibition” value is on record as 0% and the Z score is reported as 0.

Take `OC1CCCC1NCc1ccc(Br)o1` (centres undefined): the “% Inhibition” value is listed as -8% and the Z score is listed as 1.2.

In the case of `CC(=O)Nc1ccc(-c2c(-c3ccccc3)ncn2CCc2c[nH]cn2)cc1`, the “% Inhibition” value is reported as -2% and the Z score turned out to be 0.33.

Consider `O=C(c1cccc(-c2cnc(=O)[nH]c2)c1)N1CCCN2CCC[C@H]2C1`, for which the “% Inhibition” value is given as -19% and the Z score was determined as 1.87.

As to `CCn1c(-c2ccc(-n3cnnn3)cc2)nnc1N1CCN(C(=O)OC(C)(C)C)[C@@H](C)C1`, the “% Inhibition” value was -7% and the Z score came out at 0.74.

Take `CCN(CC)C(=O)CC[C@@H]1CNC(=O)[C@@H]2C[C@H](NCc3ccc(F)cc3)CN12`: the “% Inhibition” value was found to be 33% and the Z score is recorded as -3.72.

As to `CCOc1ccc(-c2cc(NC(=O)c3cc(-c4cccnc4)nc4ccccc34)on2)cc1OCC`, the “% Inhibition” value turned out to be 44% and the Z score is -9.02.

`O=C(O)C1CC=CCC1C(=O)NC1CCCC1` (centres undefined): the “% Inhibition” value is on record as -12% and the Z score was 1.48.

On to `CCN(CCNC(=O)CCN1N=C(c2ccccc2)CCC1=O)c1ccccc1`, for which the “% Inhibition” value is -5% and the Z score is reported as 0.74.

As for `CC1(C)CN(C(=O)c2cc(Cc3ccccc3)n[nH]2)CCN1`, the “% Inhibition” value is 11% and the Z score is -1.36.

On to `COC(=O)C1CCN(Cc2ccc3c(c2)CN(C(=O)c2cnn(Cc4ccccc4)c2)CCO3)CC1`, for which the “% Inhibition” value amounted to 2% and the Z score is -0.42.

As to `Cc1nc(CNC(=O)[C@@H]2CCCO2)cs1`, the “% Inhibition” value is listed as -1% and the Z score is listed as 0.15.

As to `Cc1ccc(-n2nc(C(=O)NCC3CC3)c(=O)n(Cc3ccccc3)c2=O)cc1F`, the “% Inhibition” value is reported as -17% and the Z score is recorded as 1.47.

Consider `CC1=NS(=O)(=O)N(C)C=C1C(=O)NC1CCCCC1`, for which the “% Inhibition” value is listed as -17% and the Z score stood at 3.14.
